Reference: publication PMC5291247, “The histone chaperone Vps75 forms multiple oligomeric assemblies capable of mediating exchange between histone H3–H4 tetramers and Asf1–H3–H4 complexes” (Nucleic Acids Research, 2016)

Biological target: histones H3–H4 from which native cysteine residues had been removed (Xenopus, UniProt P84233; P62799)
Test: cross-linking; cross-linking analysis of Vps75 with Asf1 and H3-H4, SDS-PAGE (Supplementary Figure S4)
Details: both partners purified

B1: globular, cysteine-free Asf1 (Asf1g […]) (domain or fragment)
chain: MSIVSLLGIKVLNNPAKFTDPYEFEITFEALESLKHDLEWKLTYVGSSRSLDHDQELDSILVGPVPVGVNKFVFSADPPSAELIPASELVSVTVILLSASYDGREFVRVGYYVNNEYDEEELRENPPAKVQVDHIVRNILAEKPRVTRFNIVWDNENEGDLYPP
stoichiometry N: 1 Asf1 per H3-H4 dimer
